The full ranking holds about 4,100 sequences; the median of “arbitrary fluorescence units” is about 780, and the highest 2% start at about 22,000. This is one part of the list.

The target in this experiment is T1, ETS1 (UniProt P14921).
T1 sequence: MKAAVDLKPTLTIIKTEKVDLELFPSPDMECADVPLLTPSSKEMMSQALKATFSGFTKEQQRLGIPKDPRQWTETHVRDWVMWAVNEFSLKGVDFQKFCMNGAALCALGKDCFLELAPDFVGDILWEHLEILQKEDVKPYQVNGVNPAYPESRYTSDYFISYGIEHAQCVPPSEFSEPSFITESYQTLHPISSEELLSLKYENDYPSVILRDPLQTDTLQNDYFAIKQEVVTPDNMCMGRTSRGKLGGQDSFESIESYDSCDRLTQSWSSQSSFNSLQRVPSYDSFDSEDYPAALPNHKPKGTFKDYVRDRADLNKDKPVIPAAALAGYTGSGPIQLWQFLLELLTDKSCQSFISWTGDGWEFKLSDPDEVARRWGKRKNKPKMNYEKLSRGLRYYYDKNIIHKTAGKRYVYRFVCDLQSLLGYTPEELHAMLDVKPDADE
Put plainly: ETS1 binding intensity (PBM fluorescence), ETS1 alone (arbitrary fluorescence units); higher = stronger binding. Conditions: ETS1 concentration 1 nM; RUNX1 concentration 0 nM. An outline of the steps:
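Full-length recombinant human ETS1 (1 nM, no RUNX1) was incubated, per standard PBM protocols, on double-stranded Agilent 4 × 180k arrays of 36-bp genomic probes whose RUNX1 partner site was mutated. Bound ETS1 was detected with anti-ETS1 antibody (Cell Signaling Technology 14069) and Alexa488-conjugated secondary antibody, then scanned on a GenePix 4400A. Binding level is spot fluorescence intensity, summarised over replicate spots (four printed per sequence) and not normalised.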
On to CTTTTTGGTCTGCCAGGCACGGATTTCCGCCCACTC, for which the ETS1 binding intensity turned out to be 1270.
Sequence CAAGCTCTTCGGCCTTCGTTCCTCTCTTCCGTTTGC displayed an ETS1 binding intensity of 521.
In turn, GCGATTTGGGGTTCCTCCTTAGGAAGCCAGATATGG yielded an ETS1 binding intensity of 371.
The sequence CCGAATCTTCGGTGGAACCCGGATGTGGCCGAGGCC showed an ETS1 binding intensity of 2240.
Then CCCCTCCCCTCAGCAGCAGGTGTTTCCGTTCGGGTG, with 833; and CCCAGAGGAAGCCCCATGCCAAGCCCGCCAACGCCA, with 435; and CTTTGGCGGCTACATGTCCCCCTTTCCGGGAATCTG, with 609.
Sequence CTGACTTGTTGTAGTCTCTGCCACTTCCTGAGGTGT had an ETS1 binding intensity of 668.
CGTTCGGGGTTCCTCTCGGCCCCGGATGTGACTGTT had an ETS1 binding intensity of 998.
AGCTCAATTTCCTGGCGTGTAACATGGCCCCAAGGG: the ETS1 binding intensity is 4800.
The sequence TCCAACGTCAACATGCAAAACTCAGAGGAAACGCAG had an ETS1 binding intensity of 437.
In the case of CTCTCTTTCCTGTTGAGTAATCGAGGTCTCTGCTCC, the ETS1 binding intensity was 2800.
AGCGGTGTTTCAGGATGTGAGGGCCCTCAGGAGCCG yielded an ETS1 binding intensity of 621.
For CAGAAGGTGCTTACGTACTAATTTCCTCTAGGGCTT, the ETS1 binding intensity worked out at 593.
Sequence GCTTCTGAGGAAGTGCGTTCTGAGGGTAGGTGGAGT registered an ETS1 binding intensity of 832.
With GGGGTCCACGGTGGCTGCCGCATCCGGTTTAGGGGC, the ETS1 binding intensity came to 9320.
GAGAGCCTACGGCTGGCGTTTGAGGCGGATGGCAGT came in with an ETS1 binding intensity of 295.
GAGCAGGGCTGAGGGGTCTTTACCGTCCGGCTCCGC showed an ETS1 binding intensity of 321.
Turning to AGGCCACCCCCTTCCTCCGCCCGCTGGTCGCAGCCT, the ETS1 binding intensity was determined as 462.
For AATGCTGAGAACCCCAGGCTCACAGGATGCCCATCT, the ETS1 binding intensity worked out at 383.
Consider AGCTACCCCAGCCCAGGCCAGAGCAGGAAGGGTAGA, for which the ETS1 binding intensity was determined as 330.
Sequence TGGTCCTTTGTGAGCGTGCTGTCAGGAAGATGACAG returned an ETS1 binding intensity of 338.
Turning to ATTTCAGTTGAAAGCACTGTTCTTCCTGTTTCTCTG, the ETS1 binding intensity came out at 1150.
The sequence CTACATTTCCCACAGGCGCCCGGGCGCTTTTCGAAC displayed an ETS1 binding intensity of 471.
For the sequence TCGCCTCAGCCCTCATATTCAACCCGGAAGCCTGGG, the ETS1 binding intensity came out at 386.
GGGGAACGGAAGCTGCTGTCGTTACTGGCAGTTGTC had an ETS1 binding intensity of 2950.
Take CCGAGAAGTGGAATCGCCAGGCGGAAGGGGCGGAGT: the ETS1 binding intensity turned out to be 515.
As to CTTCTGGCGGAAGCGGCACAAGGCGCAGTACAGCGC, the ETS1 binding intensity turned out to be 2170.
For the sequence GCCTTACGGCGAGGCGGGCCGGAGCGACGGAAAGCT, the ETS1 binding intensity stood at 298.
The sequence GGTCTAAGAGGAAGGATGGGGACCAGCCCTCAGGCG yielded an ETS1 binding intensity of 426.
Sequence GAGGTGCTGCAGGCCAGCCAGCTGTCATCCTGTCTG had an ETS1 binding intensity of 362.
In the case of ACACAGGAAGGACGCACGCTCCCGCCCCAACCCCAT, the ETS1 binding intensity was 1500.
GCTGAGTGCAGGTGGCCTGGGCGGAAGGCTCAGCGG had an ETS1 binding intensity of 336.
The sequence CCTACCTCGGAGAGAAGGCTCTTTATTTCCTAGCCG returned an ETS1 binding intensity of 317.
Sequence CATGTTGTCAACTCGATTTGTCACAGGAAGTACCCA had an ETS1 binding intensity of 958.
Then GAGGTGCCGGAAGCCAGTAGGTGCTTTTGGGTGCTA, with 1880; and GGGCGGGGCATTTTGGGTAAGAGGAAACGCTGGGGC, with 687.
In the case of TCCGCGCGGACGGCCGCGTTGTAGGGGACGGACGTG, the ETS1 binding intensity was found to be 325.
TTGAAAAGCACGACTCCTGACACAGTAGTTCCGCCT yielded an ETS1 binding intensity of 361.
As for TGAACTCCGCCCAGCGCGATCCGGAAGCCTAGCGCC, the ETS1 binding intensity worked out at 443.
ATGGAAAGGAAGTCGGTGGGAATCCGCCTCAGCGGT gave an ETS1 binding intensity of 1590.
Then TCGCTGGGACAGCGGCTGGGCGTCCGGGGGCGGGGC, with 388; and TCAGAACCAGGAAACTGAAGGCGATTACTCCACATA, with 782.
Take CTGCTTGAGGGTGGAGGGGAGCTTCCGAAGGAGGCC: the ETS1 binding intensity came to 536.
With GTGTTTCCTCTTTGTTTTGGGGCTGGGGTTGTCACA the figure was 4800.
With GGGCTTCGGCGCTGGAACTGGACCAATCCGGAATCG the figure was 275; with TCAAAGCGGCGGGGTTTCATTTCCTGTTCCTGAACA, 12300; with TGGCGGGAGAACTTCCCCCTGTGCGCTCGCGACGTG, 775.
The sequence ACAGGAAATGACATCAGAATCTCCAAACTACAACCA showed an ETS1 binding intensity of 2200.
As for TGGCAGGATGCCGTTAAATATGTAATCACATGTCTC, the ETS1 binding intensity came to 703.
Then GGGCTAGCGGATCTGGCCGCCGCTTCCCGTCCAGGG, with 699; and GGGTGGCGATCACGTGCCCAGAACGTCCGGCGTTCG, with 549; and GGCTCGGCAAACATCCGGCTCCGCTCTGGAACGGGA, with 17500.
In turn, GCTTTTTCTTGGTAGTTGGGCAGGAAGCCTCTAGAG yielded an ETS1 binding intensity of 589.
With CAGGTTGTTGAGGATGTGGAGAAACAGCAACCTCGT the figure was 574; with AGGCCGCTTCCTCCCACATGAAATCGCAGGCTTCGG, 3450.
In turn, GGGGGAAGCTTCCTGAGGTGAAATAGAGCGCTGTGC returned an ETS1 binding intensity of 2740.
GTTGGTTTCCTCTAGACTCTCGTGGACACACCGTTC registered an ETS1 binding intensity of 2210.
Sequence AGGCGCGCTCTTACGGCGTCACGGAAGGCGCGCTCT yielded an ETS1 binding intensity of 336.
With AGGAGGTGCTCAGGCGGAGGCCAGGATGTGTGCAAA the figure was 413; with CCAGCCGGAAGCCCCGCCCCCTAGAGGCACCGTGGA, 3670; with GAGGTTGGGAAGTTCTTCCTTTGGTCTGACAACAGT, 800.

These data come from the supplement of paper PMC10681739.
